From PubChem BioAssay AID488969 (Vanderbilt High Throughput Screening Facility, 2010)
Whole data set: some 110,000 compounds, median “z-score” near -0.1, cut for the highest 2% near 2. This is one part of the list.

target: Metabotropic glutamate receptor 8 (Rattus norvegicus) (UniProt P70579); experiment: rat mGluR8 modulators via GIRK flux, primary screen, cell-based, thallium flux, HTS (AID 488969); conditions: HEK293 rat mGluR8, GIRK (G protein-gated inwardly rectifying potassium channel) thallium flux, FluoZin2; at 10 µM; stronger effect = higher value; submaximal glutamate (EC20) added with thallium
Chain of UniProt P70579 (P70579 whole entry, looked up): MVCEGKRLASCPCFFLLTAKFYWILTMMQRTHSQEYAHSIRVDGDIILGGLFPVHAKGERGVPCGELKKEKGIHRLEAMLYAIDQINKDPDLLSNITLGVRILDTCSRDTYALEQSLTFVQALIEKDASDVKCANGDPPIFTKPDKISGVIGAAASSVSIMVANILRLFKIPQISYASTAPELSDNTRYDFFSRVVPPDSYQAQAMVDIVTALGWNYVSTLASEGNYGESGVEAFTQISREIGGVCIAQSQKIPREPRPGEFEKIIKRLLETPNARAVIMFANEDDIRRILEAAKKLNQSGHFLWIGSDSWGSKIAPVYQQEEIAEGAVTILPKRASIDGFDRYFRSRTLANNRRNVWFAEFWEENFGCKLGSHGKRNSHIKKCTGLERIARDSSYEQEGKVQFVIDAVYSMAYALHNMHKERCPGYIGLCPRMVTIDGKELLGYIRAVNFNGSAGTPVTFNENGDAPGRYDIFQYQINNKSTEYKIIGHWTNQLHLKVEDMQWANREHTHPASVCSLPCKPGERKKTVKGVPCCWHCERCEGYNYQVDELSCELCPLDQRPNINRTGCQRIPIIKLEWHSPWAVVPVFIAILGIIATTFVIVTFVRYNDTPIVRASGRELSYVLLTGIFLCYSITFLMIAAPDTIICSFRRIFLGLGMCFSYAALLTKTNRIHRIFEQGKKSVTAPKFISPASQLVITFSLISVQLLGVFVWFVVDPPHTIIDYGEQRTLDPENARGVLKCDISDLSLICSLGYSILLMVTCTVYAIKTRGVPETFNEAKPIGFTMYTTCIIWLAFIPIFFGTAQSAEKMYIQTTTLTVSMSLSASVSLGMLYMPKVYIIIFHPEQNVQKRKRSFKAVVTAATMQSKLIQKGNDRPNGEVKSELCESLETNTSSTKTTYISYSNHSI

| SMILES | z-score |
| --- | --- |
| CC(C)=CCSc1nnc([C@@H](NC(=O)OC(C)(C)C)C(C)C)o1 | -0.198 |
| COC(=O)COc1ccc(Cl)cc1C1Nc2ccccc2C(=O)N1c1ccc(OC)cc1 (stereo not given) | -0.642 |
| C=CCn1c(C(CCCC)CC(C)O)n[nH]c1=S (stereo not given) | -0.296 |
| CCNc1ccc(S(=O)(=O)N(C)C)cc1NCC(=O)Nc1ccc(Br)cc1F | -0.257 |
| CCC(C(=O)N1CCN(S(C)(=O)=O)CC1)c1ccccc1 (stereo not given) | -0.0165 |
| O=C(COc1ccc(Cl)cc1Cl)NCc1ccco1 | 0.146 |
| Cc1cc(CCN2CCC(=O)NC2=S)ccc1OC(C)C | -0.0392 |
| COc1ccc(CNC(=S)N/N=C/c2ccc(OC)c(OC)c2)cc1 | 0.908 |
| O=C(C1=NN(c2ccccc2)C2C(=O)N(c3ccccc3Cl)C(=O)C12)c1ccccc1 (stereo not given) | 0.395 |
| Cc1nc(-c2cccnc2)sc1C(N)=O | -0.109 |
| Cc1cc(C(F)F)n2ncc(C(=O)NCCc3ccc(Cl)cc3)c2n1 | -0.612 |
| COc1ccccc1-c1cc(C(=O)NCCCn2ccnc2)no1 | -0.27 |
| N#CC1=C(N)Oc2c(oc(CO)cc2=O)C1c1ccsc1 (stereo not given) | 0.321 |
| COc1ccc(CNC(=O)COC(=O)C2CCC(C(C)(C)C)CC2)cc1 (stereo not given) | -0.144 |
| COc1ccc(-n2c(N)c(C(=O)NCc3ccco3)c3nc4ccccc4nc32)c(OC)c1 | -0.884 |
| O=C(COc1ccccc1)NC1=NCCS1 | -0.0489 |
| CCOC(=O)C(=NCCOC)NNc1cc(Cl)ccc1Cl | 0.196 |
| O=C(CCN1C(=O)C2C3C=CC(C3)C2C1=O)Nc1c(F)cccc1F (stereo not given) | -0.143 |
| COc1ccc(CCN2C(=O)CC(C(N)=O)SC2=Nc2ccccc2)cc1OC (stereo not given) | 1.15 |
| Cc1cccc(-c2cc3nc4c(c(N5CCCC(O)C5)n3n2)CCC4)c1 (stereo not given) | -0.584 |
| N#CC(C#N)=C1C=CC=CN1/C(=C\c1ccccc1)C(=O)c1cccs1 | -0.0557 |
| CCOc1ccc(NC(=O)CN(C)CC(=O)NC2CCCc3ccccc32)cc1OCC (stereo not given) | -1.47 |
| CCOc1cnn(-c2cc(Oc3ccc(C)cc3)ncn2)c(=O)c1Cl | -0.1 |
| O=C(C(NS(=O)(=O)c1cccc2nsnc12)c1ccccc1)N1CCN(c2ccccn2)CC1 (stereo not given) | 0.582 |
| Cc1cc(C)nc(NS(=O)(=O)c2ccc(NC(=O)c3cc(-c4ccccc4)nc4ccccc34)cc2)n1 | -0.762 |
| COc1cccc(C(=O)N(Cc2nc(-c3cccc(C)c3)no2)C(C)C)c1OC | -0.901 |
| O=C1c2cccc3c(N4CCCCC4)ccc(c23)C(=O)N1CCO | -0.897 |
| Cc1cc(C)n(-c2nc(N(c3ccccc3)c3ccccc3)nc(-n3nc(C)cc3C)n2)n1 | -0.0469 |
| CC(C)NC(=O)NC(=O)COc1ccc(Br)cc1Br | -0.136 |
| CCCN1CCN(c2nc(-c3cccs3)nc3ccccc23)CC1 | -0.0799 |
